From the supplement of paper PMC8728848
This is one part of the list.

Legend:
Experiment in all cases: glycan array binding signal (z-score within array); higher = stronger binding
Settings in all cases: glycan notation: IUPAC condensed, linker removed
[1] = biological target: Kdn(a2-3)Gal(b1-4)[Fuc(a1-3)]GlcNAc
Summary of the method: (§1)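 Columns mapping to the same glycan were averaged after glycan names were converted to IUPAC-condensed notation. The data come from 3228 arrays in the Consortium for Functional Glycomics database, limited to those with an available protein sequence. Binding is reported as a within-array Z-score averaged across arrays of one protein sequence and across linkers.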

Kdn(a2-6)Gal(b1-4)GlcNAc = biological target: Kdn(a2-6)Gal(b1-4)GlcNAc
Summary of the method: as §1

[2] = biological target: Man(a1-2)Man(a1-2)Man(a1-3)Man
Summary of the method: as §1

[3] = biological target: Man(a1-2)Man(a1-2)Man(a1-3)[Man(a1-2)Man(a1-3)[Man(a1-2)Man(a1-6)]Man(a1-6)]Man(b1-4)GlcNAc(b1-4)GlcNAc
Summary of the method: as §1

[4] = biological target: Man(a1-2)Man(a1-2)Man(a1-3)[Man(a1-2)Man(a1-6)[Man(a1-3)]Man(a1-6)]Man(b1-4)GlcNAc(b1-4)GlcNAc
Summary of the method: as §1

[5] = biological target: Man(a1-2)Man(a1-2)Man(a1-6)[Man(a1-3)]Man
Summary of the method: as §1

Man(a1-2)Man(a1-3)Man = biological target: Man(a1-2)Man(a1-3)Man
Summary of the method: as §1

[6] = biological target: Man(a1-2)Man(a1-3)[Man(a1-2)Man(a1-6)]Man
Summary of the method: as §1

[7] = biological target: Man(a1-2)Man(a1-3)[Man(a1-2)Man(a1-6)]Man(a1-6)[Man(a1-2)Man(a1-2)Man(a1-3)]Man
Summary of the method: as §1

[8] = biological target: Man(a1-2)Man(a1-3)[Man(a1-2)Man(a1-6)]Man(a1-6)[Man(a1-2)Man(a1-2)Man(a1-3)]Man(b1-4)GlcNAc(b1-4)GlcNAc
Summary of the method: as §1

[9] = biological target: Man(a1-2)Man(a1-3)[Man(a1-3)[Man(a1-6)]Man(a1-6)]Man(b1-4)GlcNAc(b1-4)GlcNAc
Summary of the method: as §1

[10] = biological target: Man(a1-2)Man(a1-3)[Man(a1-6)]Man(a1-6)[Man(a1-2)Man(a1-3)]Man(b1-4)GlcNAc(b1-4)GlcNAc
Summary of the method: as §1

[11] = biological target: Man(a1-2)Man(a1-6)[Man(a1-3)]Man(a1-6)[Man(a1-2)Man(a1-2)Man(a1-3)]Man
Summary of the method: as §1

[12] = biological target: Man(a1-2)Man(a1-6)[Man(a1-3)]Man(a1-6)[Man(a1-2)Man(a1-2)Man(a1-3)]Man(b1-4)GlcNAc(b1-4)GlcNAc
Summary of the method: as §1

Man(a1-3)[Man(a1-6)]Man = biological target: Man(a1-3)[Man(a1-6)]Man
Summary of the method: as §1

[13] = biological target: Man(a1-3)[Man(a1-6)]Man(a1-6)[Man(a1-2)Man(a1-3)]Man(b1-4)GlcNAc(b1-4)GlcNAc
Summary of the method: as §1

[14] = biological target: Man(a1-3)[Man(a1-6)]Man(a1-6)[Man(a1-3)]Man
Summary of the method: as §1

[15] = biological target: Man(a1-3)[Man(a1-6)]Man(a1-6)[Man(a1-3)]Man(b1-4)GlcNAc(b1-4)GlcNAc
Summary of the method: as §1

[16] = biological target: Man(a1-3)[Man(a1-6)]Man(b1-4)GlcNAc(b1-4)GlcNAc
Summary of the method: as §1

[17] = biological target: Man(a1-3)[Man(a1-6)]Man(b1-4)GlcNAc(b1-4)[Fuc(a1-6)]GlcNAc
Summary of the method: as §1

Man(a1-6)Man = biological target: Man(a1-6)Man
Summary of the method: as §1

Man(b1-4)GlcNAc = biological target: Man(b1-4)GlcNAc
Summary of the method: as §1

MurNAc(b1-4)GlcNAc = biological target: MurNAc(b1-4)GlcNAc
Summary of the method: as §1

Neu5Ac(a2-3)Gal = biological target: Neu5Ac(a2-3)Gal
Summary of the method: as §1

[18] = biological target: Neu5Ac(a2-3)Gal(b1-3)GalNAc
Summary of the method: as §1

[19] = biological target: Neu5Ac(a2-3)Gal(b1-3)GalNAc(b1-3)Gal(a1-4)Gal(b1-4)Glc
Summary of the method: as §1

[20] = biological target: Neu5Ac(a2-3)Gal(b1-3)GalNAc(b1-4)[Neu5Ac(a2-3)]Gal(b1-4)Glc
Summary of the method: as §1

[21] = biological target: Neu5Ac(a2-3)Gal(b1-3)GalNAc(b1-4)[Neu5Ac(a2-8)Neu5Ac(a2-3)]Gal(b1-4)Glc
Summary of the method: as §1

[22] = biological target: Neu5Ac(a2-3)Gal(b1-3)GalNAc6S
Summary of the method: as §1

[23] = biological target: Neu5Ac(a2-3)Gal(b1-3)GlcNAc
Summary of the method: as §1

[24] = biological target: Neu5Ac(a2-3)Gal(b1-3)GlcNAc(b1-2)Man
Summary of the method: as §1

[25] = biological target: Neu5Ac(a2-3)Gal(b1-3)GlcNAc(b1-2)Man(a1-3)[GlcNAc(b1-4)][Neu5Ac(a2-3)Gal(b1-3)GlcNAc(b1-2)Man(a1-6)]Man(b1-4)GlcNAc(b1-4)GlcNAc
Summary of the method: as §1

[26] = biological target: Neu5Ac(a2-3)Gal(b1-3)GlcNAc(b1-2)Man(a1-3)[Neu5Ac(a2-3)Gal(b1-3)GlcNAc(b1-2)Man(a1-6)]Man(b1-4)GlcNAc(b1-4)GlcNAc
Summary of the method: as §1

[27] = biological target: Neu5Ac(a2-3)Gal(b1-3)GlcNAc(b1-3)Gal(b1-3)GlcNAc
Summary of the method: as §1

[28] = biological target: Neu5Ac(a2-3)Gal(b1-3)GlcNAc(b1-3)Gal(b1-4)GlcNAc
Summary of the method: as §1

[29] = biological target: Neu5Ac(a2-3)Gal(b1-3)GlcNAc(b1-3)GalNAc
Summary of the method: as §1

[30] = biological target: Neu5Ac(a2-3)Gal(b1-3)GlcNAc(b1-4)Gal(b1-4)Glc
Summary of the method: as §1

[31] = biological target: Neu5Ac(a2-3)Gal(b1-3)GlcNAc(b1-6)GalNAc
Summary of the method: as §1

B1: Epa7 (Candida glabrata), Q6DTM6_CANGB (protein)
chain: MGSSHHHHHHSSGLVPRGSHMKDDYSSFLSNNNLGWTDPTEFPLGCSPNVTTPKNGLSMELYSYDLRKNGSYPCWDAAYLDPNYPRTGYKSHRLLAKVDGVTGNINFYYHATKGCTPEIDHLPASYNYPKPLTMTNFTMLLYGYFKPKVTGYHTFTISADDLLFVNFGAGNAFDCCKRESSADDFGNYQAYAVWGSQTAKDDLTVHLDAGLYYPIRIFFNNREYDAELSLTLKTESDSNPVIDFSDYFYSFDDTKDGCPGLVSYDTS
In the case of B1, the “glycan array binding signal (z-score)” value [1] is reported as -0.076, the “glycan array binding signal (z-score)” value (Kdn(a2-6)Gal(b1-4)GlcNAc) is reported as -0.228 and the “glycan array binding signal (z-score)” value [2] is reported as -0.244. For the same binder, the “glycan array binding signal (z-score)” value [3] was -0.135, the “glycan array binding signal (z-score)” value [4] was -0.285 and the “glycan array binding signal (z-score)” value [5] was -0.094. For the same binder, the “glycan array binding signal (z-score)” value (Man(a1-2)Man(a1-3)Man) was -0.258, the “glycan array binding signal (z-score)” value [6] was -0.261 and the “glycan array binding signal (z-score)” value [7] was -0.239. The “glycan array binding signal (z-score)” value [8] was -0.231, the “glycan array binding signal (z-score)” value [9] was -0.277 and the “glycan array binding signal (z-score)” value [10] was -0.259. For the same binder, the “glycan array binding signal (z-score)” value [11] was -0.237, the “glycan array binding signal (z-score)” value [12] was -0.235 and the “glycan array binding signal (z-score)” value (Man(a1-3)[Man(a1-6)]Man) was -0.244. The “glycan array binding signal (z-score)” value [13] was -0.223, the “glycan array binding signal (z-score)” value [14] was -0.226 and the “glycan array binding signal (z-score)” value [15] was -0.255. The “glycan array binding signal (z-score)” value [16] was -0.245, the “glycan array binding signal (z-score)” value [17] was -0.229 and the “glycan array binding signal (z-score)” value (Man(a1-6)Man) was -0.239. For the same binder, the “glycan array binding signal (z-score)” value (Man(b1-4)GlcNAc) was -0.255, the “glycan array binding signal (z-score)” value (MurNAc(b1-4)GlcNAc) was -0.238 and the “glycan array binding signal (z-score)” value (Neu5Ac(a2-3)Gal) was -0.258. For the same binder, the “glycan array binding signal (z-score)” value [18] was -0.208, the “glycan array binding signal (z-score)” value [19] was -0.251 and the “glycan array binding signal (z-score)” value [20] was -0.252. The “glycan array binding signal (z-score)” value [21] was -0.06, the “glycan array binding signal (z-score)” value [22] was -0.224 and the “glycan array binding signal (z-score)” value [23] was -0.26. The “glycan array binding signal (z-score)” value [24] was -0.228, the “glycan array binding signal (z-score)” value [25] was -0.201 and the “glycan array binding signal (z-score)” value [26] was -0.233. The “glycan array binding signal (z-score)” value [27] was -0.256, the “glycan array binding signal (z-score)” value [28] was -0.261 and the “glycan array binding signal (z-score)” value [29] was -0.21. The “glycan array binding signal (z-score)” value [30] was -0.228 and the “glycan array binding signal (z-score)” value [31] was -0.204.
